Laboratory results published in the supplement of paper PMC10326071.
Values joined by “and” are separate entries in the source; they are usually repeats but may differ in a detail not shown here. Identical values can stand only once. This is one part of the list. Most values come without repeats; read them as rough.

The compounds below were run on SARS-CoV-2 nsp3 SARS-unique domain core (SUD-core, nsp3 residues 413-676) (assay: apparent dissociation constant Kd (single-concentration BLI fit); higher = weaker binding). Settings: 100 µM; 25 °C.

Row | SMILES | apparent dissociation constant Kd
1 | N#Cc1cccc(-c2c[nH]c3ncnc(N4CCOCC4)c23)c1 | 1230 µM
2 | CC(C)(C)C(=O)OCOP(=O)(COCCn1cnc2c(N)ncnc21)OCOC(=O)C(C)(C)C | 106 µM
3 | C=CC(=O)N1CCC([C@@H]2CCNc3c(C(N)=O)c(-c4ccc(Oc5ccccc5)cc4)nn32)CC1 | 2700 µM
4 | CC(C)n1cnc2c(NCc3cccc(C(F)(F)F)c3)ncnc21 | 3440 µM
5 | O=c1[nH]c(=O)n([C@H]2C[C@H](O)[C@@H](CO)O2)cc1Cl | 52.1 µM
6 | CCNC(=O)Nc1ccc(-c2nc(N3CCOC[C@@H]3C)c3c(n2)C(C)(C)S(=O)(=O)C3)cc1 | 884 µM
7 | COCCOc1ccc(-c2cn(-c3ccccc3)c3nc[nH]c(=O)c23)cc1 | 71.1 µM
8 | C[C@@H](c1ccc(-c2ccccc2)c(F)c1)c1cc(/N=C(\N)N2CCOCC2)on1 | 1.43 µM
9 | COc1ccc(C(OC[C@H]2O[C@@H](n3ccc(NC(=O)c4ccccc4)nc3=O)C[C@@H]2OP(OCCC#N)N(C(C)C)C(C)C)(c2ccccc2)c2ccc(OC)cc2)cc1 (some centres undefined) | 1020 µM
10 | CCN1CCN(Cc2ccc(NC(=O)c3ccc(C)c(Oc4ncnc5[nH]c(C)cc45)c3)cc2C(F)(F)F)CC1 | 2920 µM
11 | O=c1ccn([C@@H]2O[C@H](COP(=O)(O)OP(=O)(O)O)[C@@H](O)[C@H]2O)c(=O)[nH]1 | 223 µM
12 | O=C(CCCCCn1cc(Nc2ncc(Cl)c(Nc3ccc(Cl)cc3)n2)cn1)NO | 2130 µM
13 | C/C(=N\NC(=O)c1ccc(C)c(Br)c1)c1ccc(O)cc1O | 0.0217 µM
14 | COc1cc(Nc2ncc(F)c(Nc3ccc4c(n3)N(COP(=O)(O)O)C(=O)C(C)(C)O4)n2)cc(OC)c1OC | 1840 µM and 1670 µM
15 | O=c1[nH]cnc2c1ncn2[C@H]1C[C@H](O)[C@@H](CO)O1 | 270 µM
16 | COc1ccc(CCC(=O)c2ccc(O)cc2)c(OC)c1 | 14800 µM
17 | C[C@@H]1CCNC(=O)c2cc3ccc(C(=O)Nc4nc5ccccc5n4CCCN(C)C)cc3n21 | 549 µM
18 | O=c1ccn([C@H]2C[C@H](O)[C@@H](CO)O2)c(=O)[nH]1 | 63.5 µM
19 | Nc1[nH]c(=O)ncc1F | 50.8 µM
20 | CCc1cc2c(cc1-c1cnn(CC(=O)N(C)C)c1)C(C)(C)c1[nH]c3cc(C#N)ccc3c1C2=O | 81 µM

Row | SMILES | apparent dissociation constant Kd
21 | O=c1[nH]c2ccc(Cl)cc2c(N[C@@H]2CN3CCC2CC3)c1-c1nc2ccccc2[nH]1 | 2410 µM
22 | CS(=O)(=O)CCNCc1ccc(-c2ccc3ncnc(Nc4ccc(OCc5cccc(F)c5)c(Cl)c4)c3c2)o1 | 5090 µM
23 | Cc1nc(Nc2ncc(C(=O)Nc3c(C)cccc3Cl)s2)cc(N2CCN(CCO)CC2)n1 | 1800 µM and 1440 µM
24 | CCN1CCC(n2cc(CNc3cc(Cl)c4ncc(C#N)c(Nc5ccc(F)c(Cl)c5)c4c3)nn2)CC1 | 53.7 µM
25 | Cc1ncc(NC(=O)c2cccc(C(F)(F)F)c2)cc1-c1cnc(OC2CCOCC2)c(N2CCOCC2)c1 | 80.6 µM
26 | Nc1nc2c(ncn2[C@@H]2O[C@H](COP(=O)(O)OP(=O)(O)OP(=O)(O)O)[C@@H](O)[C@H]2O)c(=O)[nH]1 | 99.1 µM
27 | Nc1ncnc2c1ncn2[C@@H]1O[C@H](CO)[C@@H](O)[C@H]1F | 408 µM
28 | N#C/C(=C\c1ccc(O)c(O)c1)C(=O)N1CCc2ccccc21 | 12.7 µM
29 | Cn1cc(-c2ccc3c(c2)CCN3C(=O)Cc2cccc(C(F)(F)F)c2)c2c(N)ncnc21 | 3880 µM
30 | O=c1[nH]cc([C@@H]2O[C@H](CO)[C@@H](O)[C@H]2O)c(=O)[nH]1 | 64.5 µM
31 | CS(=O)(=O)N1CCN(Cc2cc3nc(-c4cccc5[nH]ncc45)nc(N4CCOCC4)c3s2)CC1 | 603 µM
32 | Cc1ccc(NC(=O)c2ccc(CN3CCN(C)CC3)cc2)cc1Nc1nc(-c2cccnc2)cs1 | 9250 µM
33 | C1=C/COCc2cc(ccc2OCCN2CCCC2)Nc2nccc(n2)-c2cccc(c2)COC/1 | 2460 µM
34 | O=C1NC(=O)[C@@H](c2cn3c4c(cccc24)CCC3)[C@@H]1c1c[nH]c2ccccc12 | 2170 µM
35 | C[C@@H](Nc1ncnc2[nH]c(-c3ccc(O)cc3)cc12)c1ccccc1 | 1840 µM
36 | COc1cc2ncnc(Nc3ccccc3)c2cc1OC | 397 µM
37 | COc1cc2nccc(Oc3ccc(NC(=O)c4cn(C(C)C)c(=O)n(-c5ccc(F)cc5)c4=O)cc3F)c2cc1OC | 1460 µM
38 | N#Cc1ccc(-c2c(-c3ncn[nH]3)sc(N3CCOCC3)c2C#N)c(F)c1 | 3330 µM
39 | Cc1nc(Nc2cnn(C3CCNCC3)c2)nc2c1N(C)C(=O)c1cc3ccccc3cc1N2C | 13200 µM
